Values joined by “and” are separate entries in the source; they are usually repeats but may differ in a detail not shown here. Equal entries are not always repeated. Among all 110,000 compounds or so, about 230 (0.21%) showed an effect of 50% or more. The list shows a part of the results.
What follows are molecules tested against DPAP1 (Plasmodium falciparum, UniProt Q8IIJ9) (assay: primary screen, percent inhibition; read by cleavage of a fluorogenic dipeptide substrate; higher = more effect of the substance).
Sequence of DPAP1 (Q8IIJ9 whole entry, looked up): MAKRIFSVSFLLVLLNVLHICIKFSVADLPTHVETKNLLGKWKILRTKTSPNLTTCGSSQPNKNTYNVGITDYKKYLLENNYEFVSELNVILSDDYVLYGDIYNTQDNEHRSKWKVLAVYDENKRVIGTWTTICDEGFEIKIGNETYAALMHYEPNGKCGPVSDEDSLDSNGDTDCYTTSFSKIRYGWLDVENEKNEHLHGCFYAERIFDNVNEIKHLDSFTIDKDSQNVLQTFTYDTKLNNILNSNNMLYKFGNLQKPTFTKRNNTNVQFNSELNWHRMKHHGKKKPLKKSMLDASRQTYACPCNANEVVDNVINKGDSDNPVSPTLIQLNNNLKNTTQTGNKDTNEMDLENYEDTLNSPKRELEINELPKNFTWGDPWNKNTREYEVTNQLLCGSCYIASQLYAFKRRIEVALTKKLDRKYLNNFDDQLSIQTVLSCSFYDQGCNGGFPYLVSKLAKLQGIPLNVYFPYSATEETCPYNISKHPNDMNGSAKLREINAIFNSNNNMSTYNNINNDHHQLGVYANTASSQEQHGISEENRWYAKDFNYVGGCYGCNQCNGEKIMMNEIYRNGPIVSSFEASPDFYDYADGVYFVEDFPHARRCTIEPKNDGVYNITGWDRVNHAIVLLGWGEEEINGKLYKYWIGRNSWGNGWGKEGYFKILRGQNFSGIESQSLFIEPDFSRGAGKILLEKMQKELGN
Design: species or system P. falciparum D10 trophozoite lysates; single well
With `COc1cc(CNC(C)C23CC4CC(CC(C4)C2)C3)ccc1OCC(=O)NC(C)(C)C` (stereo not shown) the “% Inhibition @ 10 uM” value was -1.43%.
For `CCCCn1c(=N)c(C#N)cc2c(=O)n3cccc(C)c3nc21`, the “% Inhibition @ 10 uM” value was -2.83%.
With `CCC(Cc1ccccc1)NC(=O)C1CCCN(c2nnc(-n3cccc3)s2)C1` (stereo not shown) the “% Inhibition @ 10 uM” value was -2.25%.
In the case of `CCOC(=O)c1cccc2c1S(=O)(=O)CCC2=O`, the “% Inhibition @ 10 uM” value is reported as -1.51%.
In the case of `Cc1cc(C2(c3ccc(O)c(C)c3)OC(=O)c3ccccc32)ccc1O`, the “% Inhibition @ 10 uM” value is reported as 0.238%.
In the case of `Cc1ccc(Cn2c(=O)n(Cc3ccc4c(c3)OCO4)c(=O)c3oc4ccccc4c32)cc1`, the “% Inhibition @ 10 uM” value is reported as 7.33%.
With `C#CCn1c(Cc2ccc(OC)cc2)nc2ccccc21` the “% Inhibition @ 10 uM” value was 2.73%.
In the case of `COc1ccc(OC)c(C2=NOC(C(=O)Nc3cc(C)on3)C2)c1` (stereo not shown), the “% Inhibition @ 10 uM” value is reported as -7.71%.
For `Cc1ccc(CNC(=O)CN(C)S(=O)(=O)c2ccc(-c3cc(C)no3)cc2)cc1`, the “% Inhibition @ 10 uM” value was -3.47%.
`Cc1cccc(OCC(=O)Nc2sc(C)c(C)c2C(N)=O)c1` was tested, and the “% Inhibition @ 10 uM” value was -1.61%.
For `O=C(Cn1c2ccccc2c2cnnc(O)c21)N1CCCCC1`, the “% Inhibition @ 10 uM” value was 1.38%.
With `COc1ccccc1CNC(=O)Nc1cccs1` the “% Inhibition @ 10 uM” value was -1.6%.
In the case of `CN(C)c1ccc(Nc2nc(-c3ccccn3)cs2)cc1`, the “% Inhibition @ 10 uM” value is reported as 2.65%.
`Nc1cc(=O)nc(SCCOc2ccccc2)n1-c1ccccc1` was tested, and the “% Inhibition @ 10 uM” value was 2.08%.
`COC(=O)CCC(=O)NC(C)c1ccccc1` (stereo not shown) was tested, and the “% Inhibition @ 10 uM” value was -2.51%.
For `Cc1noc2ncnc(NCc3cccnc3)c12`, the “% Inhibition @ 10 uM” value was -4.4%.
In the case of `N/C(=N\c1ccccc1)Nc1nc(O)c2c(n1)CCC2`, the “% Inhibition @ 10 uM” value is reported as -1.98%.
`CC(C)c1ccccc1OCC(=O)Nc1ccccc1Br` was tested, and the “% Inhibition @ 10 uM” value was 1.08%.
In the case of `CCOC(=O)N1CCC(NC(=O)CS(=O)(=O)Cc2nc(-c3ccc(OC)cc3)oc2C)CC1`, the “% Inhibition @ 10 uM” value is reported as -0.138%.
For `Cc1ccc(C)c(CS(=O)(=O)c2cn(CC(=O)N3CCCC3)c3ccccc23)c1`, the “% Inhibition @ 10 uM” value was 2.73%.
In the case of `COc1ccc(/C=C/c2nn3c(-c4ccco4)nnc3s2)cc1`, the “% Inhibition @ 10 uM” value is reported as 4.94%.
`COc1ccc(C2C(C#N)=C(N)N(c3ccccc3)C3=C2C(=O)CC(C)(C)C3)cc1OC` (stereo not shown) was tested, and the “% Inhibition @ 10 uM” value was 3.72%.
For `CN1CCCCC/C1=N/C(=S)CN1CCCC1=S`, the “% Inhibition @ 10 uM” value was 8.26%.
`O=C(Nc1ccc(CN2CCOCC2)cc1)c1ccc(F)cc1` was tested, and the “% Inhibition @ 10 uM” value was 1.83%.
`Cc1ccc(NC2=NC(=O)C(CC(=O)Nc3ccccc3)S2)cc1C` (stereo not shown) was tested, and the “% Inhibition @ 10 uM” value was -1.95%.
`CCn1c(C)c(CCC(=O)NCCC2=NCc3ccccc32)c(=O)n2nc(-c3ccccc3OC)cc12` was tested, and the “% Inhibition @ 10 uM” value was 1.26%.
`CC(=O)NC1(C(F)(F)F)C(=O)Nc2c1c(=O)[nH]c(=O)n2-c1ccc(F)cc1` (stereo not shown) was tested, and the “% Inhibition @ 10 uM” value was -3.34%.
`Oc1nnc(COc2ccccc2)c2nnn(Cc3ccccc3)c12` was tested, and the “% Inhibition @ 10 uM” value was -3.08%.
With `CC1CC(O)(c2ccccc2)C(C)CN1C(C)(C)C` (stereo not shown) the “% Inhibition @ 10 uM” value was 0.605%.
With `O=C(c1ccc(C(=O)N2CCN(c3ccccc3F)CC2)cc1)N1CCN(c2ccccc2F)CC1` the “% Inhibition @ 10 uM” value was 2.01%.
With `COc1ccc(CN2CCN(Cc3ccccn3)CC2)c(OC)c1` the “% Inhibition @ 10 uM” value was -0.231%.
With `CC(C)C[C@H](NC(=O)c1ccc(-c2ccccc2C(F)(F)F)cc1)C(=O)NCC#N` the “% Inhibition @ 10 uM” value was 0.174%.
In the case of `O=C(O)CCCNS(=O)(=O)/C=C/c1ccccc1`, the “% Inhibition @ 10 uM” value is reported as -5.38% and -0.615%.
For `CCOC(=O)c1c(CN2CCN(C)CC2)n(-c2ccccc2)c2ccc(O)cc12`, the “% Inhibition @ 10 uM” value was 2.17%.
In the case of `OCC1CCCN(C2CCN(CCc3ccccc3)CC2)C1` (stereo not shown), the “% Inhibition @ 10 uM” value is reported as -0.0908%.
With `COC(=O)C1=C(C)NC(=O)C1(NC(=O)c1cccc(C)c1)C(F)(F)F` (stereo not shown) the “% Inhibition @ 10 uM” value was -1.52%.
For `CCOc1ccccc1NC(=O)c1ccc(C)cc1`, the “% Inhibition @ 10 uM” value was -2.6%.
`CC(=O)Nc1cccc(C(=O)N[C@@H](CC(C)C)C(=O)NCC#N)c1` was tested, and the “% Inhibition @ 10 uM” value was 4.63%.
`CCO/C(O)=C(\C#N)c1cc(-c2ccccc2)nc(-c2ccccc2)n1` was tested, and the “% Inhibition @ 10 uM” value was -1.72%.
For `Cc1ccc2nsnc2c1S(=O)(=O)NC1CC1`, the “% Inhibition @ 10 uM” value was 3.73%.
`Cc1c(CC(=O)NCCc2ccccc2)c(=O)oc2cc(O)ccc12` was tested, and the “% Inhibition @ 10 uM” value was 4.13%.
`Cc1cn(CNC(=O)c2ccccc2)c(=O)[nH]c1=O` was tested, and the “% Inhibition @ 10 uM” value was 1.92%.
`Cc1ccc(C(=O)c2cnc3ccccc3c2N2CCN(C)CC2)cc1` was tested, and the “% Inhibition @ 10 uM” value was -0.743%.
With `CCn1c(C(=O)N2CCC(C(=O)N3CCN(c4ccccn4)CC3)CC2)cc2sccc21` the “% Inhibition @ 10 uM” value was -3.35%.
In the case of `CC(=O)Nc1ccc(NC(=O)CN(Cc2ccccc2)S(C)(=O)=O)cc1`, the “% Inhibition @ 10 uM” value is reported as 11.6%.
With `COc1ccc(NC(=O)c2cccnc2Cl)cc1Cl` the “% Inhibition @ 10 uM” value was 4.57%.
`Cc1ccc(CN2CNc3c(c(=O)n(C)c(=O)n3C)C2)cc1` was tested, and the “% Inhibition @ 10 uM” value was -2.88%.
In the case of `c1ccc(C2CCC(N3CCN(c4ccccc4)CC3)CC2)cc1` (stereo not shown), the “% Inhibition @ 10 uM” value is reported as -6%.
For `CC(C)(C)P(=O)(O)c1ccccc1`, the “% Inhibition @ 10 uM” value was -6.29%.
`Oc1cccc(CN2CCN(Cc3ccccc3)CC2)c1` was tested, and the “% Inhibition @ 10 uM” value was 1.96%.
For `Cc1nc(NCc2ccccc2)c2sc3nc4c(cc3c2n1)COC(C)(C)C4`, the “% Inhibition @ 10 uM” value was -0.386%.
`Cc1ccc(S(=O)(=O)N(CC(=O)NCc2ccco2)c2ccc(Cl)cc2)cc1` was tested, and the “% Inhibition @ 10 uM” value was 4.96%.
`COc1ccc(-c2cc(-c3nc4c5c(ncn4n3)CCC5)[nH]n2)cc1` was tested, and the “% Inhibition @ 10 uM” value was 1.08%.
For `COc1cc(-c2[nH]nc3c2C(c2c[nH]nc2-c2ccc(F)cc2)C(C#N)=C(N)O3)cc(OC)c1OC` (stereo not shown), the “% Inhibition @ 10 uM” value was 2.32%.
For `CCOc1ccc(-c2cc(C(=O)NCc3ccccn3)c3ccccc3n2)cc1`, the “% Inhibition @ 10 uM” value was -0.519%.
`OC1CCN(Cc2cccc(Cl)c2Cl)C1` (stereo not shown) was tested, and the “% Inhibition @ 10 uM” value was -5.31%.
In the case of `CCc1nnc2c(NCCc3ccc(Cl)cc3)nc3ccccc3n12`, the “% Inhibition @ 10 uM” value is reported as -1.59%.
`O=C(COc1ccccc1)Nc1ccc(S(=O)(=O)N2CCCCCC2)cc1` was tested, and the “% Inhibition @ 10 uM” value was -11.1%.
For `COc1ccc(S(=O)(=O)N2CCN(c3ccc4nnc(-c5ccc(F)cc5)n4n3)CC2)cc1`, the “% Inhibition @ 10 uM” value was -3.08%.
`CC(C)C[C@H](NC(=O)OCc1ccc(Br)cc1)C(=O)NCC#N` was tested, and the “% Inhibition @ 10 uM” value was 3.19%.
`O=C(Nc1ccc(S(=O)(=O)NC2CCCCC2)cc1)C(F)(F)F` was tested, and the “% Inhibition @ 10 uM” value was 0.528%.
With `O=C1C(Cl)=C(Nc2cccc(Cl)c2)C(=O)N1c1ccccc1` the “% Inhibition @ 10 uM” value was 8.79%.
For `CC(C)(C)NC(=O)CN(Cc1ccccc1)S(=O)(=O)c1ccc(Br)cc1`, the “% Inhibition @ 10 uM” value was 0.324%.
In the case of `COc1cc(CN2CCN(c3ccc(Cl)cc3)CC2)ccc1O`, the “% Inhibition @ 10 uM” value is reported as 2.47%.
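Also: 30 min substrate incubation versus DMSO and 10 µM JCP410 controls.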
